These are yes or no findings as the source states them, for the method shown. In cells and extracts the contact can be indirect. Some results given as binding are weak or reduced against the parent protein; the word gives no strength. Sequences can lack the tags named with a protein.

Chains of the proteins cited; added tags and fusions are not shown.
UniProt O60346: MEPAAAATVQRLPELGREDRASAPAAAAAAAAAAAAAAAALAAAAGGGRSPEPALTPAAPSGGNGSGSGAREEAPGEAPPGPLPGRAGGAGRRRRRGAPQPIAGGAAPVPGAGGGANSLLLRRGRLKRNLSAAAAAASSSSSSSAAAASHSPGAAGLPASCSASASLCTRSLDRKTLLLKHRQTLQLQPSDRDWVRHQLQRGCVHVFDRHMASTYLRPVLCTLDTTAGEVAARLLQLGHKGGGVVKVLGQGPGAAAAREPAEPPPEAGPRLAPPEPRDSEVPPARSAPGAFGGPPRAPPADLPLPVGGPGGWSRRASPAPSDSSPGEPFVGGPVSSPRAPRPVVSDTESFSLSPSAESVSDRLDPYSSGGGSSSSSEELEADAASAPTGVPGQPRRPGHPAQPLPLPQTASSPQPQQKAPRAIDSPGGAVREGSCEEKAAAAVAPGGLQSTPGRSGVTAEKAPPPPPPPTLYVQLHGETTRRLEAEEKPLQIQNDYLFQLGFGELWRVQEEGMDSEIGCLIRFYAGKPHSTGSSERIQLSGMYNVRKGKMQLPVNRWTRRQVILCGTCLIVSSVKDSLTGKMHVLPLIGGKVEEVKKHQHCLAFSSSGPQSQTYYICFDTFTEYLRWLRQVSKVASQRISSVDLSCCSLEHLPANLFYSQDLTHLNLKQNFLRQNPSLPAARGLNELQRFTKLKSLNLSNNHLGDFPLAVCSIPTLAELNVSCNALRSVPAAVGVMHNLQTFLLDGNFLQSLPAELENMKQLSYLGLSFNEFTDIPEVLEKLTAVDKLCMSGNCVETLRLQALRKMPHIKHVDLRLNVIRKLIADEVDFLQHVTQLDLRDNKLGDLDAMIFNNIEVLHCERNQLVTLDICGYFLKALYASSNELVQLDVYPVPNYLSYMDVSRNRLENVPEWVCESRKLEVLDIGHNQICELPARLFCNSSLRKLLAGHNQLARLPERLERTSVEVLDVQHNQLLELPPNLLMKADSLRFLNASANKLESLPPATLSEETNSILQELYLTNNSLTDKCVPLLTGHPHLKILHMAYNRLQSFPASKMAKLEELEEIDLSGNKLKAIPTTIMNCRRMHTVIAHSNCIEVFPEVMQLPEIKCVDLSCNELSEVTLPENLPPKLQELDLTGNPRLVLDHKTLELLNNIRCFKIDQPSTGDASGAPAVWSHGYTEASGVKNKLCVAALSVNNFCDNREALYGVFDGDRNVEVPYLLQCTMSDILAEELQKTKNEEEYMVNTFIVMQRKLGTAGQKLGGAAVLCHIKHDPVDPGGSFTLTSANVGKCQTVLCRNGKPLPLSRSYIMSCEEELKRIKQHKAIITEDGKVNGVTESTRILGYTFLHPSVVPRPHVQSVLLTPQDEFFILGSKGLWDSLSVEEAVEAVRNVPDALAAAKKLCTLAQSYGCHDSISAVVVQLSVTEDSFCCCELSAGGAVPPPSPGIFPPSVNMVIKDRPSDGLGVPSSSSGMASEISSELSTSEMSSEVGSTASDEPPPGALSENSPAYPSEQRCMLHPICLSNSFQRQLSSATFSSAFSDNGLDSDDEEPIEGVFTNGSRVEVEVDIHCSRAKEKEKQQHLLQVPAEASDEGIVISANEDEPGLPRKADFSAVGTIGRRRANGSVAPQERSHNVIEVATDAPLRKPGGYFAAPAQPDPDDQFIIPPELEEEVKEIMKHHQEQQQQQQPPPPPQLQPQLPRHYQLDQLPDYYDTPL

For experiment [1], the target named is T1, SFB-SGT1 (triple-tagged SGT1, wild type), in HeLa (human) (UniProt Q9Y2Z0).
T1 sequence: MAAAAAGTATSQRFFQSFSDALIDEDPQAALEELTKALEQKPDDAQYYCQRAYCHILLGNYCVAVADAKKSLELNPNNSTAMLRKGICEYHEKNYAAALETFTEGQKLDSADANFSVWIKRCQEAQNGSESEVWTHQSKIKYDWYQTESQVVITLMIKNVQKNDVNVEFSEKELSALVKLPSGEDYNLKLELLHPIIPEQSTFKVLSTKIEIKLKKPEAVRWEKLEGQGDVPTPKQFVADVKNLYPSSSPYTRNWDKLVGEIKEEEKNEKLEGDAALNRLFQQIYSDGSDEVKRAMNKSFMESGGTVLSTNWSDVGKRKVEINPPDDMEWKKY
The experiment is described as follows: co-IP; HeLa cells expressing SFB-SGT1, nocodazole arrest and release, later stages of mitosis (post-kinetochore assembly); streptavidin beads; blots with PHLPP1 and RNF41 antibodies (Fig. 7A).

Experiment [2] has as its target T1, SFB-SGT1 (triple-tagged SGT1, wild type), in HeLa (human). Briefly: condition: only later stages of mitosis, post-kinetochore assembly; co-IP; HeLa cells expressing SFB-SGT1, nocodazole arrest and release, later stages of mitosis (post-kinetochore assembly); streptavidin beads; blots with PHLPP1 and RNF41 antibodies (Fig. 7A).
The target is the same in experiment [3]. The experiment is described as follows: co-IP; HeLa cells expressing SFB-SGT1, nocodazole arrest and release, early stages of mitosis; streptavidin beads; blots with PHLPP1 and RNF41 antibodies (Fig. 7A).

For “PHLPP1, endogenous in HeLa (from UniProt O60346 1-1717) (enzyme)”, the binding entry in experiment [1] is reported as “binds”; in experiment [2], “no binding”; in experiment [3] it was “binds”.
